Reference: the supplement of paper PMC10502849
Values joined by “and” are separate entries in the source; they are usually repeats but may differ in a detail not shown here. Equal values may be shown once. Where a name gives a salt, the structure may show the parent alone. The list shows a part of the results. Many values rest on one well or one pass, so single values are uncertain.

Tests used:
[1] = tested on: H9 teratoma-derived LAM model cells, TSC2-/-; assay: percent SyTOX+ dead cells; higher = more cytotoxic; settings: 5 µM, treatment time 72 h, culture: 3D hyaluronic acid hydrogel
[2] = tested on: H9 teratoma-derived LAM model cells, WT; assay: percent SyTOX+ dead cells; higher = more cytotoxic; settings: 5 µM, treatment time 72 h, culture: 3D hyaluronic acid hydrogel, genotype: WT
[3] = tested on: H9 teratoma-derived LAM model cells, TSC2-/-; assay: percent of cells invaded past median invasion distance of vehicle control; LAM is lymphangioleiomyomatosis; the cells come from teratomas of the human stem cell line H9; higher = more invasion; extreme values may be limits of the assay; settings: 5 µM, treatment time 72 h, culture: 3D hyaluronic acid hydrogel
[4] = tested on: H9 teratoma-derived LAM model cells, WT; assay: as above; settings: 5 µM, treatment time 72 h, culture: 3D hyaluronic acid hydrogel, genotype: WT
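Wherever percent SyTOX+ dead cells is given: cells seeded atop a hyaluronic acid gel crosslinked via MMP-cleavable peptides, containing vitronectin peptides and methylcellulose, imaged live by high-content microscopy with automated analysis, one technical replicate per compound.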
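Wherever percent of cells invaded past median invasion distance of vehicle control is given: live cells imaged by high content microscopy and scored with in-house automated image analysis, one technical replicate per compound in each genotype and rapamycin condition.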

Row | Compound | percent SyTOX+ dead cells ([1]; rapamycin 0 nM) | percent SyTOX+ dead cells ([1]; rapamycin 20 nM) | percent SyTOX+ dead cells ([2]; rapamycin 0 nM) | percent SyTOX+ dead cells ([2]; rapamycin 20 nM) | percent ([3]; rapamycin 0 nM) | percent ([3]; rapamycin 20 nM) [%] | percent ([4]; rapamycin 0 nM) [%] | percent ([4]; rapamycin 20 nM)
1 | CCN(CC)Cc1ccc2cc(COC(=O)Nc3ccc(C(=O)NO)cc3)ccc2c1 [ITF2357, ITF-2357, Givinostat hydrochloride] | 34.9% | 18.8% | 31.3% | 7.99% | 4.41% | 3.59 | 0 | 2.07%
2 | Nc1ccc(-c2cccc3c(=O)cc(N4CCOCC4)oc23)cc1 | 16% | 19.9% | 23.1% | 17.3% | 48.7% | 43.3 | 35.4 | 29.5%
3 | COc1ccc(-c2ccc3c(N4CCOC[C@@H]4C)nc(N4CCOC[C@@H]4C)nc3n2)cc1CO | 6.48% | 0.39% | 14% | 15.4% | 44.4% | 88.8 | 53.9 | 74.7%
4 | CCOC(=O)c1c2c3c(cccc3[nH]c1=O)C(=O)c1ccccc1-2 | 8.48% | 6.13% | 14.2% | 7.6% | 79.5% | 34.4 | 61 | 29.7%
5 | Cn1cc(-c2cnc3ccc4ccc(CS(=O)(=O)NCc5ccccn5)cc4c(=O)c3c2)cn1 | 7.07% | 2% | 9.74% | 15.5% | 62.1% | 81 | 53.7 | 48.1%
6 | COc1cc2ncnc(Nc3ccc(O)c(Br)c3)c2cc1OC | 14.8% | 20% | 24.9% | 25.6% | 19.9% | 10.8 | 23.4 | 8.81%
7 | O=C(CO)N1CCC(c2n[nH]c(-c3ccc(Cl)cc3)c2-c2ccncn2)CC1 | 5.38% | 4.56% | 10.9% | 5.01% | 24.4% | 24.5 | 17.7 | 34.3%
8 | CO[C@@H]1[C@H](N(C)C(=O)c2ccccc2)C[C@H]2O[C@]1(C)n1c3ccccc3c3c4c(c5c6ccccc6n2c5c31)C(=O)NC4 | 10.8% | 15.8% | 15.1% | 22.6% | 0% | 0.75 | 0 | 0%
9 | O=C(O)c1ccc2c(c1)nc(Nc1cccc(Cl)c1)c1ccncc12 | 8.33% | 2.59% | 18.2% | 18.5% | 65.3% | 99 | 26.2 | 48.8%
10 | Cc1ccccc1C(=O)c1ccc(Nc2ccc(Br)cc2N)cc1Cl | 18.7% | 11.2% | 16.3% | 29.4% | 17.4% | 20.1 | 10.6 | 8.54%
11 | NCc1ccc(Nc2ncc(F)c(Nc3ccccc3)n2)cc1 [Dianilinopyrimidine_01] | 15.6% | 8.25% | 13.5% | 16.6% | 67.9% | 99 | 65.2 | 67.9%
12 | Cc1cc(C(=O)NOCCO)c(Nc2ccc(I)cc2F)n(C)c1=O | 27.2% | 19.5% | 34.9% | 32% | 49.3% | 75.1 | 46.6 | 29.2%
13 | CC1(C)C(=O)NC2=C1C(=O)C(=O)c1ccccc12 | 22.1% | 23.4% | 22.8% | 18.1% | 9.94% | 20.3 | 27.9 | 28.1%
14 | CC(C)(N)c1ccc(-c2nc3ccccc3nc2-c2ccccc2)cc1 | 8.03% | 11.2% | 15.4% | 9.11% | 39% | 28.4 | 26.6 | 40.9%
15 | Nc1cccc(-c2cc3c(Oc4cccc(O)c4)ncnc3[nH]2)c1 | 19.1% | 20.7% | 47.8% | 41.2% | 0% | 0 | 0 | 0%
16 | O=c1c(-c2ccc(O)cc2)coc2cc(O)cc(O)c12 [Genistein] | 10.2% | 10.6% | 16.9% | 11.7% | 15.1% | 13.3 | 28.5 | 16%
17 | O=C1NC(=O)/C(=C/c2ccc3nccc(-c4ccncc4)c3c2)S1 | 25% | 17.5% | 36% | 41% | 87.5% | 4.12 | 20 | 1.05%
18 | S=C(S)N1CCCC1 [Pyrrolidinedithiocarbamate ammonium] | 75.2% | 85.9% | 72.2% | 75% | 15.7% | 7.41 | 14.7 | 13.2%
19 | O=c1cc(-c2cccc3c2Sc2ccccc2S3)oc(N2CCOCC2)c1 | 12% | 19.8% | 36.9% | 16.1% | 35.2% | 16.2 | 5.73 | 25.3%
20 | CC(C)c1ccc(C(=O)c2cccs2)c(SCCCCCCCCN(C)C)n1 | 26.2% | 22.1% | 32.5% | 29% | 72.9% | 50.4 | 33.5 | 26.1%
21 | Nc1ccc(C(=O)Nc2cccc(-c3nc(N4CCOCC4)c4oc5ncccc5c4n3)c2)cn1 | 29.1% | 18.9% | 44.3% | 35.7% | 35.2% | 77.5 | 37.7 | 72.4%
22 | Cc1ccc(S(=O)(=O)Nc2nc3ccccc3nc2Nc2ccc3nsnc3c2)cc1 | 7.27% | 10.8% | 13.9% | 8.17% | 29.8% | 17.7 | 33.6 | 38%
23 | CC(C)C(=O)SCCCCCCC(=O)Nc1nc(-c2ccccc2)cs1 | 22.8% | 20.4% | 22% | 28.2% | 56.4% | 62.8 | 54.8 | 66.3%

Row | Compound | percent SyTOX+ dead cells ([1]; rapamycin 0 nM) | percent SyTOX+ dead cells ([1]; rapamycin 20 nM) | percent SyTOX+ dead cells ([2]; rapamycin 0 nM) | percent SyTOX+ dead cells ([2]; rapamycin 20 nM) | percent ([3]; rapamycin 0 nM) | percent ([3]; rapamycin 20 nM) [%] | percent ([4]; rapamycin 0 nM) [%] | percent ([4]; rapamycin 20 nM)
24 | N#Cc1c(-c2ccccc2)cc(-c2cc(Br)ccc2O)[nH]c1=O | 69.2% | 40.8% | 44.1% | 29.3% | 52.6% | 41.4 | 8.4 | 27.4%
25 | O=C1Cc2c([nH]c3ccc(Br)cc23)-c2ccccc2N1 | 36.5% | 45.8% | 41% | 0% | 0.93% | 0 | 0 | 0%
26 | COC(=O)Nc1ccc(-c2nc(N3CCOCC3)c3cnn(C4CCN(C(=O)OC)CC4)c3n2)cc1 | 3.92% | 5.36% | 11.9% | 15.1% | 63.4% | 77.7 | 64.3 | 64.6%
27 | CC[C@]1(O)C[C@H]2CN(CCc3c([nH]c4ccccc34)[C@@](C(=O)OC)(c3cc4c(cc3OC)N(C=O)[C@H]3[C@@](O)(C(=O)OC)[C@H](OC(C)=O)[C@]5(CC)C=CCN6CC[C@]43[C@@H]65)C2)C1 | 36.1% | 34.1% | 33.1% | 30.8% | 26.4% | 29.4 | 24.4 | 53%
28 | COc1ccc(C(=O)Nc2sc3c(c2C(N)=O)CCCC3)cc1OC | 9.41% | 14.9% | 7.36% | 11.6% | 19.7% | 9.06 | 14.7 | 21.2%
29 | Cn1c(Nc2ccc(C(F)(F)F)cc2)nc2cc(Oc3ccnc(-c4ncc(C(F)(F)F)[nH]4)c3)ccc21 | 11.8% | 5.68% | 21.8% | 31.9% | 24.5% | 55.5 | 7.25 | 1.95%
30 | c1ccc2c(Oc3nc(Nc4ccc(N5CCOCC5)cc4)c4ncn(C5CCCCC5)c4n3)cccc2c1 [Purmorphamine] | 11.6% | 15.4% | 12.7% | 10.8% | 71.6% | 41.3 | 26.3 | 28.6%
31 | CCCCCCCCCCCCCCCCn1cc[n+](Cc2ccccc2)c1C | 13.2% | 22.3% | 21.4% | 39.8% | 41.6% | 68.2 | 40.2 | 37%
32 | CCc1nc(-c2cccc(C)c2)c(-c2ccnc(NC(=O)c3ccccc3)c2)s1 | 13.2% | 24.1% | 31.8% | 23.5% | 40.1% | 22.6 | 1.35 | 7.65%
33 | Cc1ccccc1-n1c(Cn2nc(-c3cccc(O)c3)c3c(N)ncnc32)nc2cccc(C)c2c1=O | 18.5% and 6.25% | 15.3% and 5.16% | 16.9% and 14% | 17.3% and 13% | 21.2% and 41.9% | – | – | 25.5% and 15.3%
34 | O=C1CCc2c(ccc3ccccc23)O1 [Splitomicin] | 7.34% | 11.8% | 16.1% | 13.3% | 66.4% | 53.5 | 54.4 | 49.7%
35 | Cc1ccc(NC2=CC(=O)c3sc(C)nc3C2=O)cc1 [Ryuvidine] | 31.6% | 36.6% | 45% | 42.4% | 1.49% | 9.68 | 3.95 | 9.3%
36 | Cn1cnc2c(NCc3ccccc3)nc(NCCO)nc21 [Olomoucine] | 8.92% | 9.36% | 7.12% | 8.7% | 39.2% | 35.1 | 35.3 | 43.8%
37 | O=S(=O)(c1cccc2cnccc12)N1CCCNCC1 [Fasudil HCl, AT-877, HA-1077 (diHCl), Eril] | 3.79% | 5.21% | 5.61% | 4.12% | 19.3% | 27.1 | 19.2 | 23.2%
38 | O=C(C=Cc1ccccc1)NC(NC(=S)Nc1ccc(Cl)cc1)C(Cl)(Cl)Cl (stereo unspecified) | 13.5% | 10.1% | 18.1% | 13.3% | 76.8% | 46.6 | 15 | 34.7%
39 | CNS(=O)(=O)Nc1nccc(Cc2c(C)c3ccc(Oc4ncccn4)cc3oc2=O)c1F | 10.9% | 4.13% | 22.1% | 17.8% | 58.8% | 84.1 | 37.6 | 28.7%
40 | CCN(CC)CCCCN1c2ccccc2Oc2ccc(Cl)cc21 [10-DEBC hydrochloride] | 15% | 8.06% | 13.8% | 18.3% | 30.5% | 62.5 | 23.9 | 56.6%
41 | COc1cc2ncnc(Nc3cccc(Cl)c3)c2cc1OC [Tyrphostin AG 1478 mesylate] | 17.6% | 24.3% | 7.41% | 16.3% | 9.56% | 8.41 | 0.74 | 2.48%
42 | C=CCc1cccc(/C=N/NC(=O)CN2CCN(Cc3ccccc3)CC2)c1O | 16.7% | 13.5% | 17.3% | 13.1% | 46.2% | 36.3 | 64.5 | 29.9%
43 | C[C@]1(c2nc3c(C(N)=O)cccc3[nH]2)CCCN1 | 14.1% | 12.1% | 12.1% | 13.7% | 24.9% | 26.7 | 64.2 | 68.4%
44 | CN(C)CC(=O)Nc1ccc2[nH]c(=O)c3ccccc3c2c1 [PJ-34 hydrochloride hydrate] | 13.1% | 13.1% | 10.7% | 12.2% | 73.4% | 48.3 | 69.9 | 66.3%
45 | Nc1nccc(Oc2ccc(NC(=O)c3c[nH]cc(-c4ccc(F)cc4)c3=O)cc2F)c1Cl | 10% | 12.8% | 22.8% | 37.2% | 46.2% | 75 | 17.3 | 7.28%
46 | O=C(Nc1ccc([N+](=O)[O-])cc1Cl)c1cc(Cl)ccc1O [Niclosamide] | 28.1% | 12.7% | 22.6% | 2.79% | 26.1% | 25.7 | 1.41 | 9.78%
